Measured values published in PubChem BioAssay AID1645887 (National Center for Advancing Translational Sciences (NCATS), 2021).
Several values for one entry are separate records, joined by “and”; a condition that tells them apart may be missing. Equal entries are not always repeated. Among all 16,000 compounds or so, about 40 (0.2%) were called active. Not shown: some 1% with an inconclusive outcome. Calls come from the whole dose curve; as a rule, active = well fitted activation curve with a large enough effect; inconclusive = small, poorly fitted or top-dose-only effect, or another doubt; inactive = no such curve, though single readings can be large or run the other way. The list shows a part of the results. Some structures have more than one record in an assay (separate samples or runs), and their calls can disagree.

The compounds below were run against Rap guanine nucleotide exchange factor 4 (Homo sapiens) (UniProt Q8WZA2) (assay: Validation qHTS for agonist of cAMP-regulated guanine nucleotide exchange factor 4 (EPAC2)). Details: EPAC2 Rap1B BODIPY-GDP exchange, fluorescence; activation: hits give high values.
Method in brief: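 Fluorescent exchange assay: 100 nM EPAC2 with 250 nM RAP1B-BODIPY-GDP and 50 uM GDP; compound added, 5 min at room temperature, then read (ex 480/em 540 nm) every 5 min for 30 min. Normalized to 6.5 mM cAMP agonist control.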
% is set by controls: 0 for no effect and ±100 for the full control effect; potency is the fitted concentration of half-maximal effect.
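Throughout, for activation: exchange makes BODIPY-GDP fluorescence drop when released from Rap1B; series mostly up to about 150 µM.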

Sequence of UniProt Q8WZA2 (Q8WZA2 whole entry, looked up): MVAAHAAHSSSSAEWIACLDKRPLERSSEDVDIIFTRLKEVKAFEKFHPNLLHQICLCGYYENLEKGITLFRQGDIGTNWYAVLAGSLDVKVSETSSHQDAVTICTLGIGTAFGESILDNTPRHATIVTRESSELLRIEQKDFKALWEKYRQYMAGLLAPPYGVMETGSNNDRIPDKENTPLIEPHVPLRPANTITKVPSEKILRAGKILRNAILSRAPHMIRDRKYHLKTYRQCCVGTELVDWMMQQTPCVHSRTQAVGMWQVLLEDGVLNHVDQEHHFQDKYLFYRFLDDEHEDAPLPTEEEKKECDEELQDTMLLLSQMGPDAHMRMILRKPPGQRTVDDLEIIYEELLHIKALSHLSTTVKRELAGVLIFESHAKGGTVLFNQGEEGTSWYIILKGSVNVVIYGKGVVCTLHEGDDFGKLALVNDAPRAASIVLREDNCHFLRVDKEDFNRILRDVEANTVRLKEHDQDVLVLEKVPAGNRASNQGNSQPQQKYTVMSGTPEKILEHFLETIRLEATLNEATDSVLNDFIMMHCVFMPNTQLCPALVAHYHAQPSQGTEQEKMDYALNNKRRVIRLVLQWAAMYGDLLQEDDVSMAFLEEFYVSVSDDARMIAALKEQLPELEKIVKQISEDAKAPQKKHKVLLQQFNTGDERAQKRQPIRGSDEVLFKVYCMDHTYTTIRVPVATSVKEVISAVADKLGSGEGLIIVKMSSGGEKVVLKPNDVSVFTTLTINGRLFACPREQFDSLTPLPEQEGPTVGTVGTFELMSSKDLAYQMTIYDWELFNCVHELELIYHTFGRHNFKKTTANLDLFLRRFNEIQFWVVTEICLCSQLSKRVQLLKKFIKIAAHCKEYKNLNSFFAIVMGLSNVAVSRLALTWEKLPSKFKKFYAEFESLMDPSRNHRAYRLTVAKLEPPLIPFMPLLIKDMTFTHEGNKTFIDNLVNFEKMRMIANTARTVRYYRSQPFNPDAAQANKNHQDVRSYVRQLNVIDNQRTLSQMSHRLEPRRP

Compound	activation	Potency
CCOC(=O)/C=C/c1ccccc1S(=O)(=O)NC(C)(C)C	inactive: -16.5%	
COc1cccc(Cn2c(=O)c(-c3ccc(Cl)cc3)nc3cnc(N4CCNCC4)nc32)c1	inactive: 18.6%	
CCC1CN(CC(=O)NC(C)c2c(C)nn(C)c2C)Cc2cc(OC)ccc2O1 (centres undefined)	inactive: -11%	
C[C@@H](CSc1ccc(Br)cc1)CN1CC[C@H](C(C)(C)C)CCC1=O	inactive: -6.78%	
C#C[C@]1(O)CC[C@H]2[C@@H]3CCC4=CCCC[C@@H]4[C@H]3C(=C)C[C@@]21CC	inactive: -6.57%	
CC(=O)NCCNc1ncnc2ccc(-c3cccc(NS(C)(=O)=O)c3)cc12	inactive: -8.1%	
Cc1cc(C(=O)Nc2cccc(-c3nc(CNC(=O)c4ccccc4C(F)(F)F)c(C)o3)c2)c(C)o1	inactive: -15.1%	
Cn1cccc1C(=O)N1CCC2(CC1)CN(C(=O)Nc1cccc(C#N)c1)C2	inactive: -10.5%	
Cn1cccc1C(=O)N1CCC[C@@]2(CCN(c3cccc(-c4ccccc4)c3)C2)C1	inactive: -7.4%	
CC(=O)Oc1ccc2c(c1)CCC1C2CC[C@]2(C)C(OC(C)=O)CCC12 (some centres undefined)	inactive: -1.9%	
COc1cccc(Cn2c(=O)c(-c3cccc(C#N)c3)nc3cnc(N4CCOCC4)nc32)c1	inactive: 1.25%	
CC(=O)OCC[N+](C)(C)C	inactive: -2.31% and inactive: 1.21% and inactive: -1.13%	
COc1cc2c(c(OC)c1OC)-c1c(cc3c(c1OC)OCO3)C[C@@H](C)[C@](C)(O)C2	inactive: 1.81% and inactive: 4.23%	
CNc1nc(-c2ccc3c(c2)OCO3)nc2ccccc12	inactive: -3.46%	
CC1(C)CCC2=C(O1)c1ccccc1C(=O)C2=O	inactive: 17.8%	
N[C@@H](Cc1cc(-c2ccc(Cl)cc2Cl)cc(CP(=O)(O)O)c1O)C(=O)O	inactive: -28.5%	
Cc1ccc(C(=O)NCCc2nnc3n2CCN(Cc2cc(C)cc(C)c2)CC3)cc1	inactive: -1.34%	
CON=C1C[C@]2(C[C@@H]3C[C@@H](C/C=C(\C)C[C@@H](C)/C=C/C=C4\CO[C@@H]5[C@H](O)C(C)=C[C@@H](C(=O)O3)[C@]45O)O2)O[C@H](/C(C)=C/C(C)C)[C@H]1C	inactive: -57.2% and inactive: -64.5%	
O=[N+]([O-])c1ccc(/C=N\O)o1	inactive: -4.7%	
O=C(CO)[C@@H](O)[C@H](O)[C@@H](O)C(=O)O	inactive: 11.8%	
OCCN1C[C@H](O)[C@@H](O)[C@H](O)[C@H]1CO	inactive: 6.71%	

Compound	activation	Potency
CCC(=O)NC1CCc2cccc(OC)c2C1 (centres undefined)	inactive: 5.86%	
Cc1ccsc1CN1CCc2nnc(CCNC(=O)c3ccc(F)cc3)n2CC1	inactive: -4.66%	
COc1cc(-c2c(OC)cccc2OC)cc2c1OCCN(C(=O)CCC(=O)c1ccc(F)cc1)C2	inactive: -17.2%	
C/C=C/c1ccc2oc(-c3ccc(O)cc3)c(C)c2c1	inactive: -7.49%	
OC(c1ccc2c(c1)CN(Cc1cccn1-c1ncccn1)CCO2)C1CCCCC1 (centres undefined)	inactive: -21.5%	
O=C1CC[C@H](C(=O)N2CCCCC2)N1	inactive: -14.9%	
O=C(O)/C=C/c1cnc[nH]1	inactive: -7.03%	
N[C@@H](CSCCCO)C(=O)O	inactive: 8.38%	
COc1ccc(CN2CCCC(n3cc(C(=O)NC4CCCC4)nn3)C2)c(O)c1 (centres undefined)	inactive: -13.2%	
CC(C)CN1CCC(=O)N(CCOc2ccccc2)CC1	inactive: -21.8%	
COc1cc(OC)c(C(=O)CCCCN2CCC3(CC2)NC(=O)NC3=O)cc1NS(=O)(=O)c1ccc(C(F)(F)F)cc1	inactive: -16.7% and inactive: -13.1%	
CC1(C)SC2C(NC(=O)Cc3ccccc3)C(=O)N2C1C(=O)O (centres undefined)	inactive: 0.593%	
c1ccc2nc3ccccc3cc2c1	inactive: -8.02%	
Cc1cc2ccccc2cn1	inactive: -19.9%	
CC[C@@]12CCCN3CCc4c(n(c5ccccc45)[C@](O)(C(=O)OC)C1)[C@H]32	inactive: -4.79%	
O=C1CCC[C@@H]2C[C@@]3(C[C@@H]4CCN1[C@H]24)Nc1cc(Cl)ccc1NC3=NC1CCCCC1	inactive: 4.65%	
N#C[C@H]1C[C@H]2C[C@@H]2N1C(=O)[C@@H](N)C12CC3CC(CC(O)(C3)C1)C2	inactive: -14.2%	
O=C1[C@H](Cc2ccccc2)NCCCC[C@@H](c2ccco2)N1Cc1ccccc1	inactive: -35.7%	
O=C1OC(OC(=O)c2cccnc2Nc2cccc(C(F)(F)F)c2)c2ccccc21 (centres undefined)	inactive: -1.51%	
COC(=O)C1=C(C)NC(C)=C(C(=O)OC(C)C)C1c1cccc2nonc12 (centres undefined)	inactive: -23.1% and inactive: -5.57%	
CC1(C)CC[C@]2(C(=O)O)CC[C@]3(C)C(=CCC4[C@@]5(C)CC[C@H](O)C(C)(C)[C@@H]5CC[C@]43C)C2C1 (some centres undefined)	inactive: 1.41%	

Compound	activation	Potency
COCCn1c(=O)c(C)nc2cnc(N(C)C)nc21	inactive: 0.525%	
CO[C@H]1[C@H](NC(=O)c2ccsc2)c2ccccc2C12CCN(Cc1cccn1-c1ccccn1)CC2	inactive: -11.6%	
CCOC(=O)Nc1ccc(NCc2ccc(F)cc2)nc1N		active: 112 µM
Cc1cc(=O)[nH]c2ccc(O)cc12	inactive: -9.77%	
O=c1cnc2cnc(N3CCOCC3)nc2n1C[C@H]1CCCO1	inactive: -24.5%	
O=C(Nc1nccs1)[C@@H]1CC=C[C@@H]2CCN(Cc3ccccc3)C(=O)[C@@H]21	inactive: -23.8%	
CCOC(=O)N1CCC(N2CCOc3ccc(CN4CCC(O)(c5cccnc5)CC4)cc3C2)CC1	inactive: 1.87%	
NCCC[C@@H](N)C(=O)O	inactive: 8.2%	
COCC(=O)Nc1c(I)c(C(=O)NCC(O)CO)c(I)c(C(=O)N(C)CC(O)CO)c1I (centres undefined)	inactive: -21%	
COc1ccc(-n2c(=O)c(-c3ccc(F)cc3)nc3cnc(OC)nc32)cc1	inactive: -1.69%	
CN1CCN(c2cc3c(cc2F)c(=O)c(C(=O)O)cn3-c2ccc(F)cc2)CC1	inactive: -1.27%	
O=C(O)CCCC[C@@H]1SC[C@@H]2NC(=O)N[C@@H]21	inactive: -3.1%	
C[N+]1(C)CCc2cc3c(cc2[C@@H]1[C@@H]1C(=O)Oc2c1ccc1c2OCO1)OCO3	inactive: 0.251% and inactive: 1.12%	
COc1cc(/C=C/C(=O)c2cccs2)cc(OC)c1OC	inactive: -4.29%	
Cn1cc(-c2nc3cnc(N4CCNCC4)nc3n(C)c2=O)c2ccccc21	inactive: 4.82%	
C#CCN(Cc1nc(N2CCOCC2)c2ccc(Cl)cc2n1)Cc1ccco1	inactive: -3.91%	
Cc1cc(C(=O)NCc2nc(-c3cccc(NC(=O)c4cc(C)oc4C)c3)oc2C)nc(C)n1	inactive: -13.6%	
O=C(N[C@H]1CCC(=O)N(CCSc2ccc(Br)cc2)CC1)OCc1ccccc1	inactive: -16.1%	
CC(C)=CCC1C(=O)N(c2ccccc2)N(c2ccccc2)C1=O	inactive: -9.15%	
COc1ccc2[nH]cc(CCNc3cc(-c4cccnc4)ncn3)c2c1	inactive: -0.765%	
Cc1ccc(CN2CCc3nnc(C(NC(=O)c4ccoc4)C(C)C)n3CC2)cc1C (centres undefined)	inactive: 5.23%	

Compound	activation	Potency
CN1CCN(c2ncc3nc(-c4cccc(C#N)c4)c(=O)n(Cc4ccc(F)cc4)c3n2)CC1	inactive: -15.6%	
N[C@@H](CSSC[C@H](N)C(=O)O)C(=O)O	inactive: -3.29%	
CN(C)c1ccc(C(=O)N2CCCC(Cn3cc(C(=O)N4CCCC4)nn3)C2)cc1 (centres undefined)	inactive: -6.08%	
CC1COc2c(N3CCN(C)CC3)c(F)cc3c(=O)c(C(=O)O)cn1c23 (centres undefined)	inactive: -2.84% [middle of 4 runs]	
CS(=O)(=O)NC(=O)CCC/C=C\C[C@H]1C(=O)C[C@@H](O)[C@@H]1/C=C/[C@H](O)COc1ccccc1	inactive: -3.5%	
NC(=O)C[C@H](NC(=O)Cc1ccc(O)cc1O)C(=O)O	inactive: -8.03% and inactive: 11.8%	
O=C(O)COc1ccc(C(=O)c2cccs2)c(Cl)c1Cl	inactive: -6.64% and inactive: -5.98%	
COc1cccc(O)c1O	inactive: -7.15%	
COc1ccccc1CNc1nc(-c2ccc(N(C)C)cc2)nc2ccccc12	inactive: 9.82%	
c1cncc(CNc2ccnc(-c3ccc4c(c3)OCO4)n2)c1	inactive: -5.21%	
COc1ccc(CNC(=O)[C@@H]2CC=C[C@@H]3CCN(Cc4ccc(OC)c(OC)c4)C(=O)[C@@H]32)cc1	inactive: -14.4%	
COc1ccc(CCn2nnnc2C2(c3ccc(C)cc3)CC2)cc1	inactive: -53.3%	
O=c1c(-c2ccc(Cl)cc2)nc2cnc(N3CCOCC3)nc2n1-c1ccccc1	inactive: -1.48%	
O=CCCCC=O	inactive: -5.34%	
O=c1c(-c2cc(F)cc(F)c2)nc2cnc(N3CCOCC3)nc2n1C1CC1	inactive: -11.7%	
CC1(C)S[C@@H]2[C@H](NC(=O)COc3ccccc3)C(=O)N2C1C(=O)OCc1ccccc1 (some centres undefined)	inactive: -26.5%	
Nc1ccccc1C(=O)C[C@H](N)C(=O)O	inactive: 8%	
CCCCOc1ccc(C(=O)CCN2CCCCC2)cc1	inactive: -10.2% and inactive: -15.5%	
CC(C)(C)CC(C)(C)c1ccc(OCCOCC[N+](C)(C)Cc2ccccc2)cc1	inactive: -42% and inactive: -10.4%	
O=P(O)(O)C(O)c1ccc2ccccc2c1 (centres undefined)	inactive: -2.68%	
CC(C)C[C@@H](CSc1ccccc1)N1CCN(C)CCC1=O	inactive: -9.44%	
